This is an account of results in article PMC4336329 (PLoS ONE, 2015).

Screen size: about 310,000 compounds; about 2,200 (0.71%) showed an effect of 50% or more. Effects have a minus sign here. The list shows a part of the results.

Chain of human ether-à-go-go-related gene (hERG) potassium channel (Q12809 whole entry, looked up): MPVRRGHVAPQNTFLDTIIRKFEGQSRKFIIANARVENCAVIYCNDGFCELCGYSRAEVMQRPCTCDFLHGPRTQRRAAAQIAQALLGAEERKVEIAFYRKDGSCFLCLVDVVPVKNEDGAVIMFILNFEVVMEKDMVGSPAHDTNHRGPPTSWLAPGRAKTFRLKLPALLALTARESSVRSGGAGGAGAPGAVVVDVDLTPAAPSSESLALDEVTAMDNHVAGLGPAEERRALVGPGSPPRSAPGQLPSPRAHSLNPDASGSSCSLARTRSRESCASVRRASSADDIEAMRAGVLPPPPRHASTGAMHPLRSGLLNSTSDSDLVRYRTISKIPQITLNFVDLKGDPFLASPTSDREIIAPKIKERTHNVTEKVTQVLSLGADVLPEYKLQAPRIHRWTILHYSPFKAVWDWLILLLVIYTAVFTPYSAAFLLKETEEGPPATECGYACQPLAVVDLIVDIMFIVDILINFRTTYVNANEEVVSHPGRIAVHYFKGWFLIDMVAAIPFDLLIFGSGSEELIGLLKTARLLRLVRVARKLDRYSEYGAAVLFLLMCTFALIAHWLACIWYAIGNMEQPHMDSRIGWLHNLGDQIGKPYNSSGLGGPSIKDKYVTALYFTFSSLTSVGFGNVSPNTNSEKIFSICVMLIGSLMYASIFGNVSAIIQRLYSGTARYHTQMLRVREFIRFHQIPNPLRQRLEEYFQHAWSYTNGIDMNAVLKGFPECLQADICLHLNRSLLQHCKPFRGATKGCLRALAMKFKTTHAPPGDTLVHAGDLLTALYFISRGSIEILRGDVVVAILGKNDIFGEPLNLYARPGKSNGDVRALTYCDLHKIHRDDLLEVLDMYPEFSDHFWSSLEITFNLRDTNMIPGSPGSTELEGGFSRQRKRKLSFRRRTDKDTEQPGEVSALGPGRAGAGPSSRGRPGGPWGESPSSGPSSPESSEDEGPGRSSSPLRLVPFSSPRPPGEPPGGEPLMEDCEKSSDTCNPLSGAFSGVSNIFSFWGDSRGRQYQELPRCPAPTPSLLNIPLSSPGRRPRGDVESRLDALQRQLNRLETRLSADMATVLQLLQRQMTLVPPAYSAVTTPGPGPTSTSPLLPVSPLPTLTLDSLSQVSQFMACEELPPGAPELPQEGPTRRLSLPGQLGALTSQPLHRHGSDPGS

The test addresses human ether-à-go-go-related gene (hERG) potassium channel (human, UniProt Q12809). Put plainly: primary screen, population patch clamp on CHO cells stably expressing hERG.
Turning to `CC1CCN(CCCNC(=O)C2CC(=O)N(C3CCCCCC3)C2)CC1` (stereo not drawn), the “hERG current change (%, negative = inhibition) at 1uM” value turned out to be 17.8%.
`O=C(N/N=C/c1ccccc1C(=O)O)c1cccc(S(=O)(=O)N2CCCCC2)c1`: the “hERG current change (%, negative = inhibition) at 1uM” value is listed as 12.9%.
Next, `CC1(C)CC(NC(=O)C(c2ccccc2)c2ccccc2)CC(C)(C)N1`: 14.3%.
With `CCOc1ccccc1N1CN(CC)CNC1=S`, the “hERG current change (%, negative = inhibition) at 1uM” value worked out at 0.0763%.
With `Cc1nc(C)n(CC(=O)N2CCCC(C(=O)c3cccc4ccccc34)C2)n1` (stereo not drawn) the figure was 9.26%; with `CCOc1ccc(CN(CC)C(=O)c2ccc3c(c2)[nH]c(=O)c(=O)n3CC)cc1OC`, 3.93%; with `Cc1cc(=O)[nH]c(N/N=C/c2c(F)c(F)c(F)c(F)c2F)n1`, 12.8%.
In the case of `CCC(=O)Nc1ccc(SC#N)cc1C`, the “hERG current change (%, negative = inhibition) at 1uM” value is 11.1%.
Turning to `O=C(O)CCC(=O)Nc1sc2c(c1C(=O)Nc1cccc3ccccc13)CCCCC2`, the “hERG current change (%, negative = inhibition) at 1uM” value amounted to 3.36%.
On to `C=CCOC(=O)CCC(=O)Nc1cccc2ccccc12`, for which the “hERG current change (%, negative = inhibition) at 1uM” value was determined as 7.61%.
For `CN(C)CCCN(C(=O)c1ccc2c(c1)CCCC2)c1nc2ccc(Cl)cc2s1.Cl`, the “hERG current change (%, negative = inhibition) at 1uM” value stood at 3.37%.
In the case of `COc1ccc(-c2cn3cc(C)ccc3n2)cc1F`, the “hERG current change (%, negative = inhibition) at 1uM” value worked out at 12.3%.
With `CSc1cccc(NC(=O)CCCOc2ccc(Cl)cc2Cl)c1`, the “hERG current change (%, negative = inhibition) at 1uM” value amounted to 13.9%.
For `CC(C)(O)C(=O)NNC(=S)Nc1ccc(F)c(Cl)c1`, the “hERG current change (%, negative = inhibition) at 1uM” value is reported as 15.4%.
Turning to `CCN(CC)S(=O)(=O)c1cccc(C(=O)OCC(=O)NC(C)c2ccccc2)c1` (stereo not drawn), the “hERG current change (%, negative = inhibition) at 1uM” value came out at 8.48%.
Next, `COc1cccc(S(=O)(=O)Nc2ccc(C(=O)N3CCOCC3)cc2)c1`: 6.75%; `O=C(C[n+]1ccn(-c2ccccc2)c1)c1ccc([N+](=O)[O-])cc1.[Br-]`: -30.2%; `Cc1cccc(CN(CC(=O)N/N=C/c2ccco2)S(=O)(=O)c2ccc(Cl)cc2)c1`: 7.12%.
In the case of `COc1cccc(C(=O)NCC2CCCN2S(=O)(=O)c2ccccc2)c1` (stereo not drawn), the “hERG current change (%, negative = inhibition) at 1uM” value worked out at 11.9%.
As for `COc1ccc(N(CC(=O)O)S(=O)(=O)c2cccnc2)cc1`, the “hERG current change (%, negative = inhibition) at 1uM” value came to 14.2%.
In the case of `COc1cccc(-c2c(C(=O)N/N=C(\C)c3ccc(Cl)s3)nnn2-c2nonc2N)c1`, the “hERG current change (%, negative = inhibition) at 1uM” value was 16%.
Consider `Cc1nc2sccn2c1-c1csc(NCc2ccccc2)n1`, for which the “hERG current change (%, negative = inhibition) at 1uM” value is recorded as -0.0684%.
With `Cc1ccc(NC(=O)COc2ccccc2C=O)cc1Cl` the figure was 10.5%; with `CC(=O)C1C(c2ccc([N+](=O)[O-])cc2)c2c(noc2C)CC1(C)O` (stereo not drawn), 13.8%; with `CCCc1cc(=O)[nH]c(/N=C(\N)Nc2ccccc2)n1`, 2%.
On to `COc1ccc(/C=C/C(=O)NCCSCc2ccco2)cc1`, for which the “hERG current change (%, negative = inhibition) at 1uM” value stood at 5.37%.
Next, `CCOc1cc(N2CCOCC2)c(OCC)cc1NC(=O)CN1C(=O)NC(C)(C2CC2)C1=O` (stereo not drawn): 11%.
As for `Cc1nn2c(-c3ccccc3)ccnc2c1Br`, the “hERG current change (%, negative = inhibition) at 1uM” value is recorded as 10.3%.
Next, `Cc1ccc(NC(=S)N2CCC(c3nc4ccccc4s3)CC2)cc1`: 4.71%; `O=C(CN1CCSC1=O)N1CCN(S(=O)(=O)c2ccc(Cl)cc2)CC1`: 3.03%; `CCCSc1nc2cc(C)c(C)cc2n1CC(O)CO` (stereo not drawn): 5.41%.
For `CC(C)[C@H](NC(=O)Nc1ccc(S(N)(=O)=O)cc1)C(=O)O`, the “hERG current change (%, negative = inhibition) at 1uM” value is given as 12.1%.
`Cc1cc(C)c([N+](=O)[O-])cc1-c1ccc(/C=N/c2c(-c3ccco3)nc3ccccn23)o1`: the “hERG current change (%, negative = inhibition) at 1uM” value worked out at 15.3%.
With `O=C(c1ccc(Cl)cc1)N1CCN(c2cccc3[nH]ccc23)CC1` the figure was 8.3%; with `S=c1[nH]nc(-c2ccccc2)n1CC1CCCO1` (stereo not drawn), 11.2%; with `Cc1cccc(N2C(=O)N3[C@H](c4ccc(F)cc4)[C@@H]4C(=O)N(C5CCCCC5)C(=O)[C@@H]4[C@]3(Cc3ccc(Cl)cc3)C2=O)c1`, 13.3%.
With `O=C(Nc1nc(-c2cccs2)cs1)c1ccc(Cl)cc1`, the “hERG current change (%, negative = inhibition) at 1uM” value was 13%.
For `COc1ccc(NC(=O)c2onc(C)c2Cl)cc1`, the “hERG current change (%, negative = inhibition) at 1uM” value is listed as -5.54%.
Next, `CCC1Nc2ncnc(N3CCCCC3)c2N(Cc2ccccc2)C1=O.O=C(O)C(F)(F)F` (stereo not drawn): 12.5%; `Cc1nc(N)sc1C(=O)OCC(C)C`: 5.91%; `CC1(C)CC2(CC(c3cccs3)c3cc(Cl)c(O)cc3O2)NC(=S)N1` (stereo not drawn): 1.42%.
As for `Cc1ccc(CNC(=O)CSc2ncc(C(=O)Nc3ccccc3)c(=O)n2C)cc1`, the “hERG current change (%, negative = inhibition) at 1uM” value was determined as 1.34%.
Next, `Oc1ccccc1/C=C/c1noc(-c2ccccc2O)n1`: 15.2%; `CCC(C(=O)NCCC1=CCCCC1)n1nc(C)c2c(C)n(-c3ccccc3)nc2c1=O` (stereo not drawn): -12.7%.
On to `Cn1cnnc1SC(C(=O)c1ccccc1)c1ccccc1` (stereo not drawn), for which the “hERG current change (%, negative = inhibition) at 1uM” value amounted to 6.79%.
As for `CCSc1nnc(NC(=O)c2nc(-c3ccccc3)n(-c3ccccc3)n2)s1`, the “hERG current change (%, negative = inhibition) at 1uM” value stood at 0.632%.
As to `NC(=S)Nc1cnc2ccccc2c1`, the “hERG current change (%, negative = inhibition) at 1uM” value turned out to be 15.6%.
For `CC(NC(=O)C1CCN(c2nnc(-n3cccc3)s2)CC1)C12CC3CC(CC(C3)C1)C2` (stereo not drawn), the “hERG current change (%, negative = inhibition) at 1uM” value is on record as -8.18%.
Next, `CCCCCCCCCCCC(=O)NC1CCS(=O)(=O)C1` (stereo not drawn): -0.454%; `O=C(NCCCn1ccnc1)c1ccc2c(c1)OCCO2`: 8.13%.
Regarding `CC1CCCN(c2nc3c(c(=O)n(C)c(=O)n3C)n2CCSc2nc3ccccc3s2)C1` (stereo not drawn), the “hERG current change (%, negative = inhibition) at 1uM” value is recorded as 3.35%.
For `c1ccc(-c2cc3c(-n4cccc4)ncnc3o2)cc1`, the “hERG current change (%, negative = inhibition) at 1uM” value is 0.768%.
For the compound `O=C(C1CC(=O)N(C2CCCCCCC2)C1)N1CCC2(CC1)OCCO2` (stereo not drawn), the “hERG current change (%, negative = inhibition) at 1uM” value is given as -12.2%.
Consider `COc1cc(-c2c(NC(=O)c3ccco3)oc3c(C)cccc3c2=O)cc(OC)c1OC`, for which the “hERG current change (%, negative = inhibition) at 1uM” value worked out at 15.3%.
For `O=C(Nc1ccc(-n2nncc2-c2ccco2)cc1)c1cc2ccccc2oc1=O`, the “hERG current change (%, negative = inhibition) at 1uM” value worked out at 11.8%.
As to `COc1ccc(CCNC(=O)c2cc(CC(C)C)on2)cc1OC`, the “hERG current change (%, negative = inhibition) at 1uM” value was determined as 1.47%.
As to `Cc1ccc(CNc2ccc([N+](=O)[O-])cc2C(N)=O)cc1`, the “hERG current change (%, negative = inhibition) at 1uM” value was found to be 16.2%.
